The values below come from the antibiotic and cytotoxicity screens of Wong et al. (2023).

The structures appear in SMILES notation. This is one part of the list.

The test system of one test is HSkMC. The experiment in a line: cytotoxicity call (relative viability < 0.9). The note with it: 10 µM.
The test system of a further test is S. aureus RN4220. The test can be described thus: growth inhibition call (relative growth <= 0.2). The note with it: 50 µM.

For the compound `COc1cccc(C#Cc2ccc([C@H]3[C@H](CO)N4C(=O)CN(S(=O)(=O)c5ccccc5C)C[C@@H]34)cc2)c1`, the cytotoxicity call in the test on HSkMC is “inactive”. The growth inhibition call with S. aureus RN4220 is “inactive”.
For the compound `CC(C)N1C[C@H](C)[C@@H](CN(C)Cc2ccc(Oc3ccccc3)cc2)Oc2c(C(=O)Nc3ccncc3)cccc2C1=O`, the cytotoxicity call with HSkMC is “inactive”. The growth inhibition call with S. aureus RN4220 was “inactive”.
As to `C[C@@H]1CN([C@@H](C)CO)C(=O)c2cc(NC(=O)Cc3ccccc3)ccc2O[C@@H]1CN(C)C(=O)Nc1cccc2ccccc12`, the cytotoxicity call in the test with HSkMC was “inactive”. In the test on S. aureus RN4220, the growth inhibition call was “inactive”.
`C[C@H](CO)N1C[C@H](C)[C@H](CN(C)C(=O)Nc2ccc(F)cc2)OCCCC[C@H](C)Oc2ccc(NC(=O)CCCN(C)C)cc2C1=O`: in the test with HSkMC, the cytotoxicity call is “inactive”. Further, the growth inhibition call in the test with S. aureus RN4220 was “inactive”.
`COc1ccc(C(=O)c2ccccc2)c(O)c1`: the cytotoxicity call with HSkMC was “inactive”. For the same compound, in the test with S. aureus RN4220, the growth inhibition call was “inactive”.
Consider `O=C(C[C@@H]1C=C[C@H](NC(=O)c2cccc(F)c2)[C@H](CO)O1)NCCN1CCCC1`, for which, in the test on HSkMC, the cytotoxicity call was “inactive”. The growth inhibition call in the test on S. aureus RN4220 is “inactive”.
For the compound `O=C(C[C@@H]1CC[C@@H]2[C@H](COC[C@@H](O)CN2Cc2cc(F)ccc2F)O1)N[C@@H]1CCN(Cc2ccccc2)C1`, the cytotoxicity call in the test on HSkMC was “inactive”. Moreover, in the test with S. aureus RN4220, the growth inhibition call is “inactive”.
Take `Nc1cccc(-c2cccs2)c1`: the cytotoxicity call in the test on HSkMC is “inactive”. The growth inhibition call in the test on S. aureus RN4220 was “inactive”.
With `C[C@H](CO)N1C[C@H](C)[C@@H](CN(C)Cc2ccc(Oc3ccccc3)cc2)Oc2ccc(NS(=O)(=O)c3ccccc3)cc2C1=O`, in the test with HSkMC, the cytotoxicity call is “inactive”. For the same compound, the growth inhibition call with S. aureus RN4220 is “inactive”.
For the compound `Cc1noc(C)c1S(=O)(=O)Nc1cccc2c1O[C@@H](CN(C)S(=O)(=O)c1cn(C)cn1)[C@@H](C)CN([C@H](C)CO)C2=O`, the cytotoxicity call with HSkMC is “inactive”. Further, the growth inhibition call with S. aureus RN4220 was “inactive”.
In the case of `CCOC(=O)CN(C#N)c1nc(C)cc(C)n1`, the cytotoxicity call in the test with HSkMC is “inactive”. Moreover, the growth inhibition call with S. aureus RN4220 was “inactive”.
On to `Cc1noc(C)c1S(=O)(=O)N(C)C[C@@H]1OCCCC[C@@H](C)Oc2ccc(NC(=O)Nc3ccccc3)cc2C(=O)N([C@H](C)CO)C[C@@H]1C`, for which, in the test on HSkMC, the cytotoxicity call was “inactive”. Besides, the growth inhibition call with S. aureus RN4220 is “inactive”.
As to `C[C@@H]1CN([C@H](C)CO)C(=O)c2cccc(NC(=O)C3CC3)c2O[C@@H]1CN(C)S(=O)(=O)c1cccs1`, the cytotoxicity call with HSkMC is “inactive”. In addition, in the test with S. aureus RN4220, the growth inhibition call was “inactive”.
On to `C[C@@H]1CN([C@H](C)CO)C(=O)c2cc(NS(=O)(=O)c3cn(C)cn3)ccc2O[C@@H]1CN(C)S(C)(=O)=O`, for which the cytotoxicity call in the test on HSkMC is “inactive”. Moreover, the growth inhibition call in the test on S. aureus RN4220 is “inactive”.
With `C[C@H](O)C#Cc1ccc2c(c1)O[C@@H](CN(C)C(=O)c1ccncc1)[C@@H](C)CN([C@@H](C)CO)S2(=O)=O`, the cytotoxicity call in the test on HSkMC is “inactive”. Further, in the test on S. aureus RN4220, the growth inhibition call was “inactive”.
For `C[C@H](CO)N1C[C@H](C)[C@H](CN(C)Cc2ccc(Cl)c(Cl)c2)Oc2ccc(NC(=O)Nc3ccc(C(F)(F)F)cc3)cc2CC1=O`, the cytotoxicity call in the test on HSkMC is “active”. In the test with S. aureus RN4220, the growth inhibition call was “inactive”.
Consider `CNC[C@@H]1Oc2ccc(NC(=O)CCN3CCOCC3)cc2CC(=O)N([C@H](C)CO)C[C@H]1C`, for which the cytotoxicity call with HSkMC is “inactive”. Also, in the test on S. aureus RN4220, the growth inhibition call was “inactive”.
As for `C[C@H]1CN([C@@H](C)CO)C(=O)c2cc(NC(=O)Nc3ccc(C(F)(F)F)cc3)ccc2O[C@@H]1CN(C)S(C)(=O)=O`, the cytotoxicity call with HSkMC was “inactive”. In the test with S. aureus RN4220, the growth inhibition call was “inactive”.
Consider `COc1ccc(S(=O)(=O)Nc2ccc3c(c2)C(=O)N([C@H](C)CO)C[C@@H](C)[C@@H](CN(C)C(=O)NC(C)C)O3)cc1`, for which, in the test with HSkMC, the cytotoxicity call is “inactive”. In addition, in the test with S. aureus RN4220, the growth inhibition call is “inactive”.
Regarding `Cc1noc(C)c1NC(=O)N(C)C[C@@H]1OCCCC[C@@H](C)Oc2ccc(NC(=O)NC3CCCCC3)cc2C(=O)N([C@H](C)CO)C[C@@H]1C`, the cytotoxicity call in the test with HSkMC is “inactive”. Also, the growth inhibition call with S. aureus RN4220 is “inactive”.
For `C[C@H](CO)N1C[C@H](C)[C@H](CN(C)C(=O)Nc2ccc(C(F)(F)F)cc2)OCCCC[C@H](C)Oc2ccc(NC(=O)c3ccncc3)cc2C1=O`, the cytotoxicity call in the test on HSkMC was “inactive”. Moreover, in the test with S. aureus RN4220, the growth inhibition call was “inactive”.
On to `C[C@H](CO)N1C[C@H](C)[C@@H](CN(C)S(C)(=O)=O)OCCCC[C@H](C)Oc2ccc(NC(=O)Nc3ccc(C(F)(F)F)cc3)cc2C1=O`, for which, in the test on HSkMC, the cytotoxicity call was “inactive”. In addition, in the test on S. aureus RN4220, the growth inhibition call was “inactive”.
Take `COc1ccc(NC(=O)Nc2cccc3c2O[C@@H](CN(C)S(C)(=O)=O)[C@H](C)CN([C@H](C)CO)C3=O)cc1`: in the test with HSkMC, the cytotoxicity call is “inactive”. In addition, in the test on S. aureus RN4220, the growth inhibition call was “inactive”.
On to `CCNC(=O)N1CCN(CCO)CC1`, for which, in the test with HSkMC, the cytotoxicity call was “inactive”. Also, the growth inhibition call in the test on S. aureus RN4220 was “inactive”.
Consider `C#CCN([C@H](/C=C/C1CC1)[C@@H](O)Cc1ccccc1)[C@@H](Cc1ccc(-n2cc(COc3ccccc3/C=C(C)/C=C/C(=O)NO)nn2)cc1)C(=O)OC`, for which the cytotoxicity call in the test with HSkMC was “inactive”. Further, in the test with S. aureus RN4220, the growth inhibition call is “inactive”.
Consider `CC(C)C#Cc1ccc2c(c1)O[C@@H](CN(C)C(=O)Cc1ccccn1)[C@@H](C)CN([C@@H](C)CO)S2(=O)=O`, for which, in the test on HSkMC, the cytotoxicity call was “inactive”. Further, in the test with S. aureus RN4220, the growth inhibition call is “inactive”.
`CCC[C@@H](N[C@H]1CCS(=O)(=O)C1)C(=O)O`: the cytotoxicity call in the test on HSkMC was “inactive”. Further, the growth inhibition call in the test with S. aureus RN4220 is “inactive”.
Take `CCN(CCCc1ccccc1)CCCc1ccccc1.O=C(O)CC(O)(CC(=O)O)C(=O)O`: the cytotoxicity call in the test on HSkMC was “inactive”. Besides, the growth inhibition call in the test on S. aureus RN4220 is “inactive”.
As for `C[C@@H]1CCCCO[C@H](CN(C)C(=O)C2CCCCC2)[C@H](C)CN([C@@H](C)CO)C(=O)c2cc(NC(=O)Nc3ccc4c(c3)OCO4)ccc2O1`, the cytotoxicity call in the test on HSkMC (human skeletal muscle cells) is “inactive”. Besides, the growth inhibition call with S. aureus RN4220 is “inactive”.
